We go through 44 compounds from ChEMBL document CHEMBL4888484, “Replenishing the malaria drug discovery pipeline: Screening and hit evaluation of the MMV Hit Generation Library 1 (HGL1) against asexual blood stage Plasmodium falciparum ,using a nano luciferase reporter read-out” (2022).

The campaign covered roughly 150,000 compounds. About 540 (0.36%) showed an effect of 50% or more. This is one part of the list.

In general, % Inhibition refers to the relative decrease from the control value, in per cent.

The experiment concerns Plasmodium falciparum. The experiment can be described thus: Primary screen in NF54 nanoGlo assay, in single point, at 2uM, 72h; a lower Z score goes with more inhibition. The conditions noted are these: timepoint 72 hour. Format: functional, Erythrocyte.
Regarding `CCC1CCC(C(=O)NCc2cnc(C)nc2N)O1` (stereo not drawn), the “% Inhibition” value was -12% and the Z score was 1.36.
For the compound `Cc1noc(C)c1CNc1nnc2ccccn12`, the “% Inhibition” value is listed as -3% and the Z score is given as 0.54.
Regarding `COC(CS(=O)(=O)N1CCCC(c2nnc[nH]2)C1)C(C)C` (stereo not drawn), the “% Inhibition” value is -7% and the Z score came to 0.71.
For `Cc1ccnc(-n2cnc3ccccc32)n1`, the “% Inhibition” value is recorded as 12% and the Z score was -1.54.
Take `O=C(NCc1cccnc1-n1cnc2ccccc21)c1n[nH]c2c1CCC2`: the “% Inhibition” value is reported as -5% and the Z score is 0.56.
The like results for `Cc1nccn1-c1ncc(NC(=O)Cc2c[nH]c3ccccc23)cn1` were, in that order, -2% and 0.32.
Consider `COCCN1CC[C@@]2(CCC1=O)CN(Cc1ccc(C)o1)CCN2C`, for which the “% Inhibition” value was -4% and the Z score amounted to 0.87.
Regarding `CCN1CCN(C(=O)CCc2c(C)n(C)c3cc(-c4ccccc4C)nn3c2=O)CC1`, the “% Inhibition” value came out at 2% and the Z score is reported as -0.23.
The like results for `O=C(Cc1ccoc1)N1CCO[C@@H](CF)C1` were, in that order, -2% and 0.3.
As for `C[C@@H](CO)N(CC1CCC1)C(=O)Nc1ccc(Br)cc1F`, the “% Inhibition” value is reported as -3% and the Z score was 0.32.
For `O=C(Cc1ccon1)N1CCO[C@H](c2ccccc2)CC1`, the “% Inhibition” value is listed as -10% and the Z score is listed as 2.06.
Regarding `CC1(C(=O)N2CCC(N3CCC(C(=O)N4CCCC4)CC3)CC2)CCCCC1`, the “% Inhibition” value is -11% and the Z score was found to be 1.26.
On to `CCc1cc(C(=O)NCC#C[C@@H]2CCCCO2)no1`, for which the “% Inhibition” value is recorded as -28% and the Z score is 2.96.
Turning to `O=C([C@@H]1COCC(=O)N1Cc1ccccc1)N1CCCCC1`, the “% Inhibition” value is -4% and the Z score is reported as 0.6.
For `C[C@H](NC(=O)NCc1ccnc2ccccc12)C1CCC1` the same measures were -8% and 1.11.
Take `CCn1ncnc1CNC(=O)c1cc(C)cc(OC)c1O`: the “% Inhibition” value is -12% and the Z score turned out to be 2.34.
Regarding `O=C(c1cccc(OC(F)F)c1)N(C[C@H]1CCCO1)c1ccncc1`, the “% Inhibition” value is listed as -10% and the Z score came to 1.56.
Regarding `COCCN1C(=O)C[C@](CC(=O)N2CCN(CC(=O)N(C)C)CC2)(c2ccccc2F)C1=O`, the “% Inhibition” value is listed as -10% and the Z score came to 1.3.
Take `CC[C@@](NC(=O)c1cscn1)(C(N)=O)C(C)C`: the “% Inhibition” value is on record as -3% and the Z score turned out to be 0.31.
`Cc1nnsc1[C@H](C)ON=C(N)C(C)C`: the “% Inhibition” value is recorded as -8% and the Z score stood at 1.05.
`O=C(NCc1ccc(Cl)cc1)c1ccc(-n2nc(OCc3cccc(F)c3)ccc2=O)cc1`: the “% Inhibition” value is -7% and the Z score worked out at 1.32.
Turning to `COc1ccc(CCC(=O)N2CC(N(CC(C)C)C3CCN(C)CC3)C2)cc1`, the “% Inhibition” value turned out to be 1% and the Z score is -0.13.
For the compound `CCc1ccc(CNC(=O)c2nnc3ccc(-c4ccccc4)nn23)cc1`, the “% Inhibition” value is -4% and the Z score is 0.83.
With `Cc1nc(N2CCOCC2)c2c(C(=O)Nc3ccc(F)cc3F)c(C)oc2n1`, the “% Inhibition” value is on record as -11% and the Z score was 1.86.
Consider `O=C(Nc1ccc(F)cc1)OC1CCCC(NS(=O)(=O)c2ccc(Cl)s2)C1` (stereo not drawn), for which the “% Inhibition” value is listed as -22% and the Z score was determined as 4.16.
Consider `CCNC(=O)C(=O)NCc1nc(CC)no1`, for which the “% Inhibition” value is on record as -6% and the Z score turned out to be 0.9.
For `N#Cc1c[nH]c(C(=O)Nc2ccc(F)cc2NC2CC2)c1`, the “% Inhibition” value is reported as -1% and the Z score amounted to 0.09.
Consider `Cc1n[nH]c(C)c1CCNC(=O)c1cc(S(C)(=O)=O)cs1`, for which the “% Inhibition” value is -3% and the Z score worked out at 0.38.
For `COCC[C@]1(NS(=O)(=O)c2ccccc2)CCN(S(=O)(=O)c2cccnc2)C1`, the “% Inhibition” value was 2% and the Z score was -0.28.
`CCc1c(C(=O)Nc2ccc3nc(C)cn3c2)cnc2cc(O)nn12`: the “% Inhibition” value is listed as -9% and the Z score is 1.6.
Take `CC(=O)N1C[C@H]2CC[C@@H](C1)N(C(=O)c1[nH]c3ccc(C)cc3c1C)C2`: the “% Inhibition” value was -8% and the Z score stood at 1.31.
On to `COc1ccc(C(=O)N2CCc3cc4cccc(C)c4nc32)cc1`, for which the “% Inhibition” value is reported as -4% and the Z score came out at 0.47.
The like results for `CC1CCN(C(=O)NCc2ccc3c(c2)CCC3)C1CO` (stereo not drawn) were, in that order, -14% and 1.89.
With `CN(Cc1ccoc1)C(=O)c1cccc(-c2nc(N(C)C)n(C)n2)c1`, the “% Inhibition” value is reported as -3% and the Z score worked out at 0.55.
`COC(=O)c1nc([C@@H]2CCCN2c2nccn3cnnc23)sc1C`: the “% Inhibition” value was -6% and the Z score came out at 0.93.
`CN(C(=O)c1coc(-c2ccccc2)n1)c1ccc(N2CCOCC2)nc1`: the “% Inhibition” value was -14% and the Z score turned out to be 1.76.
With `CC(C)(C)CN(C[C@H](O)c1ccccc1)C(=O)Cc1ccc(OCC#N)cc1`, the “% Inhibition” value is reported as -3% and the Z score is 0.48.
Consider `Cc1nn(-c2ccc(C(=O)N3CCN(c4ccccc4F)CC3)cc2)c2c1C(=O)CCC2`, for which the “% Inhibition” value is given as -9% and the Z score stood at 0.86.
In the case of `CCOc1nc2cc(C(=O)N3C[C@H](OC)C[C@H]3COC)ccc2[nH]1`, the “% Inhibition” value is listed as -6% and the Z score is 0.8.
Take `CCc1nn(C)cc1CN1CCC(O)(C(F)(F)F)CC1`: the “% Inhibition” value is on record as -12% and the Z score is 1.65.
With `O=C(CN1C(=O)COc2ccc(C(=O)N3CCN(Cc4ccc5c(c4)OCO5)CC3)cc21)N1CCCC1`, the “% Inhibition” value was -7% and the Z score was determined as 0.89.
As for `C[C@](O)(CNC(=O)Cc1ccc2cn[nH]c2c1)c1ccco1`, the “% Inhibition” value was -7% and the Z score was 1.01.
For `Cc1nc(CO[C@H]2CCN(c3ccc(S(C)(=O)=O)cc3)C2)cs1`, the “% Inhibition” value is on record as -22% and the Z score is recorded as 1.82.
`CN1CCN(C2(CNC(=O)c3cc(O)ccc3F)CCCC2)CC1`: the “% Inhibition” value is recorded as -5% and the Z score worked out at 0.97.
